Whole data set: some 33,000 sequences, median “E-score (-0.5 to 0.5)” near -0.021, cut for the highest 2% near 0.32. The list shows a part of the results.
The sequences below were run against T1, Zap1 (UniProt P47043) (assay: PBM E-score (8-mer binding enrichment) (E-score (-0.5 to 0.5)); higher = stronger / more preferred TF binding; most listed sequences are background and not binding sites). Conditions: protein concentration: 200 nM; construct: GST-full length.
T1 sequence: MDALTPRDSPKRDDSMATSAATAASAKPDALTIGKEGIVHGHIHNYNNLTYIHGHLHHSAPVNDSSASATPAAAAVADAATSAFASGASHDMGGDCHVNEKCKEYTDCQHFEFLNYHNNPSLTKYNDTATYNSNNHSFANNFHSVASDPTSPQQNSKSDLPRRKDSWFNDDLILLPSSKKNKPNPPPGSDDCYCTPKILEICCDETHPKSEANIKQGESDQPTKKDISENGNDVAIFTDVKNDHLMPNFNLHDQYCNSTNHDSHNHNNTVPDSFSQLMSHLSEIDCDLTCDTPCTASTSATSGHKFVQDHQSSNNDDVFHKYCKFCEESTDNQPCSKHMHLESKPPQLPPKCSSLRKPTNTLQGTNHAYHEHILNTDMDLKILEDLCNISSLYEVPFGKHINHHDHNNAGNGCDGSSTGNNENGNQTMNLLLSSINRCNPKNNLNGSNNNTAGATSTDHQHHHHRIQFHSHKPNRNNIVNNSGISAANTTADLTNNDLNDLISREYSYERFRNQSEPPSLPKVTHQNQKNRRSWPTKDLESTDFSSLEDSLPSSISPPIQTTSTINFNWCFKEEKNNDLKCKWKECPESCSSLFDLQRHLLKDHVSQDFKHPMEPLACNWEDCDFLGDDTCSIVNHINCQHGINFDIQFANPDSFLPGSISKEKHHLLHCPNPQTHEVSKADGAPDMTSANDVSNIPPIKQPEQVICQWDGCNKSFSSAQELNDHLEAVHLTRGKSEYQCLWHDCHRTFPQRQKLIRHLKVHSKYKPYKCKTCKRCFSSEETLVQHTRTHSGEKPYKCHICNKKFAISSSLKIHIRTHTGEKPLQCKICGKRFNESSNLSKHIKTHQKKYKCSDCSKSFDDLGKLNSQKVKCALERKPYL
Outline: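 Detection of bound protein used fluorescent anti-GST, with scans normalised by masliner. The proteins were GST-tagged yeast transcription factors applied at about 100-200 nM to universal all-10-mer Agilent arrays made double-stranded by primer extension. Each ungapped eight-base word, pooled with its reverse complement, was scored with an E-score from the Universal PBM Analysis Suite.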

First: GACTTGAC
Second: CCGTCTTA
The “PBM E-score” value of the first is lower: -0.0855 for the first, -0.0588 for the second.

First: ATGTAATC
Second: GCGGCAAA
The “PBM E-score” value of the first is higher: 0.0131 for the first, -0.219 for the second.

Compared with AATCCCCC, CGAATGTA is higher in “PBM E-score” value: -0.341 for the first, -0.156 for the second.

Compared with AATCGCTG, CAGCAAGA is higher in “PBM E-score” value: -0.118 for the first, -0.00185 for the second.

Compared with CTGCAAAC, CGCCATTA is higher in “PBM E-score” value: -0.0481 for the first, 0.0223 for the second.

Going from CAATATTA to CTCCTAAA, the “PBM E-score” value falls from 0.0896 to -0.147.

First: TAGGAAAA
Second: ACCGCTTA
The “PBM E-score” value of the first is lower: 0.045 for the first, 0.12 for the second.

Going from AAGCTCGG to AGAGCTGA, the “PBM E-score” value rises from -0.227 to -0.168.

First: AGAGATTG
Second: ATTGTTCC
The “PBM E-score” value of the first is lower: -0.0514 for the first, 0.0129 for the second.

Going from GCGCAGCC to AGTCGGCA, the “PBM E-score” value rises from -0.387 to -0.147.

First: AGGCGGAG
Second: TACACAGA
The “PBM E-score” value of the first is lower: -0.0819 for the first, 0.0113 for the second.

First: CCTTACAC
Second: TACCGAAA
The “PBM E-score” value of the first is lower: 0.0322 for the first, 0.116 for the second.

First: AACAAGCG
Second: ATGCTTAG
The “PBM E-score” value of the first is lower: -0.0254 for the first, 0.0971 for the second.

Compared with AAGAAGCT, GCGTTGCC is lower in “PBM E-score” value: -0.0591 for the first, -0.22 for the second.

Compared with CTTAGCGA, ACTTACAC is lower in “PBM E-score” value: 0.0604 for the first, -0.119 for the second.

Going from GACCATTA to AGCGCCTG, the “PBM E-score” value falls from 0.256 to -0.203.

First: AATGAGTC
Second: CAATGTCG
The “PBM E-score” value of the first is lower: -0.0805 for the first, -0.0226 for the second.

Going from GGACGCCA to GCCGACCA, the “PBM E-score” value falls from -0.0304 to -0.0589.

Going from CATAGGGG to AGGTAAGG, the “PBM E-score” value falls from 0.206 to 0.0588.

Compared with ATCCTAAC, CGAGCCGC is lower in “PBM E-score” value: 0.118 for the first, -0.157 for the second.

First: ACAAATGA
Second: AGACTACT
The “PBM E-score” value of the first is higher: 0.0556 for the first, -0.0915 for the second.

First: CAAACTCC
Second: GATAGGCA
The “PBM E-score” value of the first is higher: 0.033 for the first, -0.161 for the second.

Compared with AGAGACAA, TGAGCTAA is higher in “PBM E-score” value: -0.163 for the first, -0.0146 for the second.

Compared with AACATGGT, GGAGCTAA is lower in “PBM E-score” value: 0.134 for the first, -0.165 for the second.

Going from CGCGTGAA to GAACTGGA, the “PBM E-score” value falls from 0.0743 to 0.0668.

Going from TATGAAAA to ATGGTCAG, the “PBM E-score” value rises from 0.21 to 0.216.

Compared with AGGATTAA, ATGATTTC is higher in “PBM E-score” value: -0.0423 for the first, 0.0431 for the second.

Compared with ATCCTGGA, GGTCCATA is higher in “PBM E-score” value: 0.00083 for the first, 0.0734 for the second.

Compared with GTGAAACA, CCCCCAGG is lower in “PBM E-score” value: 0.097 for the first, -0.027 for the second.

Compared with CGACATTA, GTAGCCTA is higher in “PBM E-score” value: -0.0353 for the first, -0.0051 for the second.

Compared with CGTAAAAC, GTAGCGAC is lower in “PBM E-score” value: 0.158 for the first, -0.13 for the second.

Going from GCATTGAA to AGCCAGAC, the “PBM E-score” value falls from -0.0007 to -0.0808.

Going from AGGTAGTC to GGCCTAGA, the “PBM E-score” value falls from 0.147 to -0.18.

Going from ACTCTGAC to ACTCATCG, the “PBM E-score” value falls from 0.00453 to -0.17.

Compared with GACAGGAC, CGTGTCCC is lower in “PBM E-score” value: -0.0567 for the first, -0.0698 for the second.

First: GGCCAGGA
Second: ACACCCAT
The “PBM E-score” value of the first is lower: -0.161 for the first, 0.11 for the second.

Going from CATCTTTC to AACTTACA, the “PBM E-score” value rises from -0.0278 to 0.0201.

First: CATAAATG
Second: GCTAACGA
The “PBM E-score” value of the first is higher: -0.0543 for the first, -0.0629 for the second.

Going from AAATGTCC to AAATTCCC, the “PBM E-score” value falls from -0.188 to -0.229.

First: AATGGCGT
Second: GCGCTACA
The “PBM E-score” value of the first is higher: -0.0145 for the first, -0.113 for the second.

Compared with GGGGGATA, AAGTAAGA is higher in “PBM E-score” value: -0.177 for the first, 0.0484 for the second.

First: AAGGCACG
Second: ATATAGAT
The “PBM E-score” value of the first is lower: -0.121 for the first, 0.131 for the second.

Going from GTCGTGTA to AACCCACG, the “PBM E-score” value rises from 0.0536 to 0.156.
